What was measured:
Conditions in all cases: both partners purified
kLANA(1013–1149) = target: T1, kLANA(1013–1149) (Kaposi sarcoma-associated herpesvirus …, UniProt Q76SB0 1013-1149); assay: NMR titration
T1 construct: source: E. coli BL21(DE3), purified (Ni-NTA with guanidine gradient, thrombin cleavage)
T1 sequence: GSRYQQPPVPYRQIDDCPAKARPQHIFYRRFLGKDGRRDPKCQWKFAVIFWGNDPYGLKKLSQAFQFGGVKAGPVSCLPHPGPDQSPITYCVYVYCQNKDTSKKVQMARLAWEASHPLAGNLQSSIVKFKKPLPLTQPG

kLANA(996–1153) [1] = target: T2, kLANA(996–1153) (Kaposi sarcoma-associated herpesvirus …, UniProt Q76SB0 996-1153); assay: NMR titration
T2 construct: source: E. coli BL21(DE3), purified (Ni-NTA with guanidine gradient, thrombin cleavage)
T2 sequence: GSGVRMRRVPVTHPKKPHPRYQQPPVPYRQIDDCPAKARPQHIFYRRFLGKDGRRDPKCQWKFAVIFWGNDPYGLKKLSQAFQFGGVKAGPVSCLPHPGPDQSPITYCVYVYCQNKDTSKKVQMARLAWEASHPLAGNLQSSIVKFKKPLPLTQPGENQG

kLANA(996–1153) [2] = target: T2, kLANA(996–1153); assay: NMR titration; [1H,15N]-HSQC of 0.25 mM BRD4 fragments without and with 0.25 mM unlabeled kLANA CTD at 100 mM NaCl

B1: BRD4 ET([…]), unlabeled, with N-terminal GSGGGPGS (domain or fragment)
chain: not shown
notes: also called BRD4([…]); BRD4 ET domain; source: E. coli BL21(DE3), purified (Ni-NTA with guanidine gradient, thrombin cleavage)
B1: binds (kLANA(1013–1149)).

B2: 15N-BRD4 ET([…]), with N-terminal GSGS (domain or fragment)
chain: not shown
notes: also called 15N-BRD4([…]); source: E. coli BL21(DE3), purified (Ni-NTA with guanidine gradient, thrombin cleavage)
B2: binds (kLANA(1013–1149)); binds (kLANA(996–1153) [1]).

B3: BRD4([…]) (domain or fragment)
chain: not shown
notes: also called 15N-labeled ET fragment lacking the serine stretch; source: E. coli BL21(DE3), purified (Ni-NTA with guanidine gradient, thrombin cleavage)
B3: binds (kLANA(996–1153) [2]).

Reference: publication PMC3798688, “A Structural Basis for BRD2/4-Mediated Host Chromatin Interaction and Oligomer Assembly of Kaposi Sarcoma-Associated Herpesvirus and Murine Gammaherpesvirus LANA Proteins” (PLoS Pathogens, 2013)
